Laboratory results taken from the RNAGym collection of RNA variant scans (doi:10.7554/elife.90254).
Read counts are not given, so values of variants with three or more changes are uncertain.

B1: LINE1-full (parent)
chain: UACGUAGGUGGUUUUCCCCUGAUAGUGCUAAGGGGGCCUGGAAGUUUGGACUGGGCAGAGCUCAACACAGCGUGGCAAAGUGGCUGUGGCUAGACUGCCUCUCUGGAUUCCUCGUCACUCAGCAGGGCAUCUCUGAGAGAAAUGCC

Variants of: B1
Test: self-cleavage, relative activity (ratio to wild type); higher = more cleavage; in vitro, sequencing; the parent is a self-cleaving ribozyme

Variant | self-cleavage
U12C A24G U104C U134C | 2.87
U12A A31G U81C | 1.02
U12A U26G A94G | 0.28
G11A U87C U115A A129U A142G | 0.28
U12A U46A A92G | 0.1
U12A A50G A69G | 1.67
U12A U52A A140G | 0.77
U12C A107G A121G | 1.53
U12C A117G U134C | 0
U12C C19U G89A A136G | 0.09
U12A U85A U109A | 0.02
U12C A42G U112C A140U | 2.18
U12C A65G U130C | 0.28
U12A U47C A78G | 1.07
G11A U12C U13C U23G A24G A69U | 0.26
U12A A65U A94G | 0.14
U12C A67U A77G A140G | 0.15
U12C A64U U130C | 0.76
U12A U20C U108C U119G C120U A124G A138G | 0.77
G11A U20A C38U A121U | 0.95
G11A U45G U100C U119C | 0
U12C A77C G80A A141G | 0.96
U12C A22G A92U A117U | 0.6
U12A U46C U62C | 0.14

Variant | self-cleavage
G10U U52C A94U | 0.43
U12A A57U U73C U119A | 0.5
U12A A107G A121U | 0.77
U12C C17U A77G | 2.78
U12C A129G A136G | 2.19
U12C A94G U134C | 0.24
U12C A121G A124G | 0.76
U12C A77G U100A A107G | 0.97
U12A U100C G106A | 1.27
U12C A67U U96A | 0.07
U12C A57G A69G A107G U119C C123A | 0
U12C A69G A140G | 0.81
U12A A31G A142G | 0.63
U12C A78G U96A A124U A141G | 0.18
U12A A31G U91C U100A U132C A142G | 1.31
U12C A31G A121U | 1.34
U12C G21A C37G U102C | 0.58
U12A A64U A121U | 0.49
U12A A31U U96C A140G | 0.25
U12C A78G G86C A117G | 0.19
U12C A67G A94G G106C A140G | 0
G11A A43G A57G U115C A141G | 0.77
U12C A59G A107G A117U | 0.16
U12C A30U U52A U96A | 0.18

Variant | self-cleavage
U12C A30C A65U U102A | 0.87
U12A U14C A22G A67G | 0.21
G11A G32C A121U U132C | 1.1
U12C A30U A124G | 0.76
U12C A22G A138U | 0.84
U12C A57G U73A A79U A121U | 0.89
U12C A30G A69U | 0.43
G11A U26A G32U G34A | 1.55
U12C A92U U108A A140G | 0.77
U12C A141G U143A | 1.51
U12A U14C U26A G44A U100C | 1.51
U12A A22G U112C A121U G126A U130C A140G | 2.45
U12A A30G U62C A77G C113U G127U | 0.26
U12A C120U A124G A129G U143C | 0.92
U12C A43G A69U U132A | 0.21
U12C A43U U45C U115A | 1.2
G11A G58U A140G | 0.03
U12C A42G U47C U62C A141G | 0
G10U G35U C37G | 0.81
U12A U20C G53A C90U U109C | 0.08
G11A A77U U87C | 0.06
G11A A79G A92G A129U A138G | 0
G11A U96A U132C A141G | 0.06
U12A U14C U130G U143C | 1.5

Variant | self-cleavage
U12C C16U U85C | 0.21
U12C A64G U130C A140G | 0
G10U U29C A43U | 2.13
U12C A42G U46A U91C U104A U115C A140G | 0.71
G11A U39C C51U U87C | 0.14
U12C A50G U85A A142G | 0.06
U12A U13C U45G U62A A69G | 0.48
G11A A79G A107C U109C G127A A129G | 0
G11A A22G U62A | 0.04
U12C C19U U91C U109C C113U | 0.45
U12C A30U G35A | 0.85
G11U U45C C84A A124U | 0.06
U12C A42G A43U U91C | 1.6
U12C A64U U115C U119C | 1.41
U12C A67C A141G | 0
U12C A22G U23C G27A G83C A124U | 0
U12A A59G U104C | 0.43
U12C C76U U119C | 2.26
U12C C19U G41U | 1.02
G11C U29C A94G A140G | 0.18
U12C C19A A94G | 0.06
U12C A24U C37U | 1.24
U12C A50U A117U | 1.38
U12A A42G A43U C76U G83A U96C | 0.18

Variant | self-cleavage
U12C A67G U100C U109C | 0
U12A A50U C51A A67U | 0.17
G11U U14A U46C U119A U130A A140U | 0.8
U12C C19U U112C | 0.62
U12A A24U U46C U47C A107G | 0
G11A U29C A30G U39C | 0.94
G11A A64U A94G | 0.17
U12C C71A G114A | 0.09
U12A U102A A142G | 1.46
U12C A57G A64U A67C U108C | 0
G11A U29C G35U U45C | 0.78
G11A U100C A124U | 2.04
U12C A42U A77G U91G | 0
U12C A67G U130C | 0
U12C A78G G82A | 1.32
U12C A50G C71U | 0.32
G10U U47C A59G A142G | 0.09
U12C A30G A78G U132C | 1.25
G11C A43U U87A | 0.16
U12A A79G C128A | 0.25
U12A U20G U46C U100A U102C A129G | 1.67
U12C A50G C66G C99U | 0.2
U12C C61U G126U | 0.05
U12C A67U U109C | 0

Variant | self-cleavage
G11A C37U A64C | 0.29
U12A U104A U119C C120U A138G | 1.5
U12C A24U A67G U115C A138U | 1.31
U12C A124G A142G | 1.25
U12A G36A G75A U102C A138G | 0.14
U12C A67G G126U A140U | 0.29
U12C A59G A64U A107G | 0.24
U12A U29A U96G U109C | 0
U12C A107U U109A A117G A142G | 2.33
U12C A117C U134A | 1.15
U12A A77G U112A U132C | 2.01
U12C A140U U143C | 1.37
G11U U14C A77G | 1.58
U12C A57U A67G | 0
G11A U100C A138G | 1.23
G10U U26C A59G U62C G144U | 0.36
U12A G27A A57U U132C | 0
U12A U14C U15C A67G U108C | 0
U12A U29C U47C | 1.13
U12A A64U U102C | 0.57
U12C A79G G127U U143C | 1.16
G11A U96A U104C A129U A141G | 0.09
G11A A65G A136U | 0.04
U12A A50U U134C | 1.06

Variant | self-cleavage
U12A A42G C51A | 1.12
U12A A43C U85A A121C U130C U143A | 0.27
G11A U13C U29C A57G A138U | 0.47
U12A A42G A136G U143C | 0.91
U12C A50U A64U | 0.35
U12A A22G A67C A124G A136G | 0
U12C A59G U100A | 0.32
G11C A42G A67C | 0.26
U12A U39C U87C U132C | 0.28
G11C C95G A129G U143A | 0.03
U12C A79G A117G | 1.31
U12C A30G U91C U104A | 0
U12A A42G U91C U102C | 0
U12C A78G U104A | 2.25
U12C A31G G36A G105A | 1.33
U12C C16U G34C U81A A121G C146U | 2.04
U12A U47C A92G A124U | 0
U12A C61U A140G | 0.06
U12C A50G A78G | 0.81
G11A U46C U47C C76U U100A U102A | 2.41
U12C A57G U119C | 0.63
U12C A24G A107C | 0.84
U12A U45G C71U U104C A141G | 0.78
